PubChem BioAssay AID1768 (National Center for Advancing Translational Sciences (NCATS), 2009)
Hit rate of the full screen: of about 270,000 compounds, about 620 (0.23%) were called active. Inconclusive results, whose numbers are uncertain, are shown with a selection of clear calls. Calls come from the whole dose curve; as a rule, active = well fitted inhibition curve with a large enough effect in the polarisation, with a control signal flat (not every such curve was filed as active); inconclusive = small, poorly fitted or top-dose-only effect, or effect the other way, or a change in a side signal; inactive = no such curve, though single readings can be large or run the other way; the % refers to the polarisation. Potencies of inconclusive entries are doubtful fits and often do not repeat. A note “side channel” means that the fit belongs to a control or component signal, not to the main read-out.
Potency is the fitted concentration of half-maximal effect; tags give direction and shape of the fitted curve or compound fluorescence and quenching.

The compounds below were run against Menin (Homo sapiens) (UniProt O00255) (assay: qHTS Assay for Inhibitors Targeting the Menin-MLL Interaction in MLL Related Leukemias: Competition With Texas Red Labeled MLL-derived Mutant Peptide). Details: fluorescence polarization; series mostly up to 61.6 µM.
Sequence of UniProt O00255 (O00255 whole entry, looked up): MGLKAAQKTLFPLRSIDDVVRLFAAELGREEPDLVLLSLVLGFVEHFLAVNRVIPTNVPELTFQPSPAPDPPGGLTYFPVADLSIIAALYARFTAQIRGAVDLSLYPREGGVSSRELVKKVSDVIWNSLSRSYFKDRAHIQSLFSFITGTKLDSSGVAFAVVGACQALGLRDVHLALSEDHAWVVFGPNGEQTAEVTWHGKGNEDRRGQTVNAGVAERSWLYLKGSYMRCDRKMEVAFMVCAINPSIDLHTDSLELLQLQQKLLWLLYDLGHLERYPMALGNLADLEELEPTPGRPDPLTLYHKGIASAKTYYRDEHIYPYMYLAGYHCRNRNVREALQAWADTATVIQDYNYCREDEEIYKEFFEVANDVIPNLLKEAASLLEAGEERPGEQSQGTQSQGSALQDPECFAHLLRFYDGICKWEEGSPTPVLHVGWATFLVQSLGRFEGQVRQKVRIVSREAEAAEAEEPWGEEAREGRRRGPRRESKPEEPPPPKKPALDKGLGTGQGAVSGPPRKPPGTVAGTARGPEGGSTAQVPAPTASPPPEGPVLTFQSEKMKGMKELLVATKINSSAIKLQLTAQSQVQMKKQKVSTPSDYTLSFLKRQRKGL
With Clc1ccc(COc2ccccc2CNCc2cccnc2)cc1 the Potency was inconclusive: 11.2 µM [fluorescent, side channel, partial curve].
For NC(=O)c1ccc(NC(=O)COC(=O)c2cccc(Oc3ccccc3)c2)cc1, the Potency was inconclusive: 12.6 µM [inhibitor, partial curve].
In the case of Cc1csc(C(C#N)C(=O)c2cc3ccccc3o2)n1 (configuration not stated), the Potency is reported as inconclusive: 22.4 µM [quencher, side channel, partial curve].
For c1ccc2c(Cc3c[nH]c4ccccc34)c[nH]c2c1, the Potency was inconclusive: 25.1 µM [quencher, side channel, partial curve].
For Cc1ccnc(NC(=O)c2ccc(Br)s2)c1, the Potency was inconclusive: 14.1 µM [quencher, side channel, single point].
In the case of Cc1sc(N)c(C(=O)c2cccc(C(F)(F)F)c2)c1C, the Potency is reported as inconclusive: 10 µM [quencher, side channel, partial curve].
For O=C(CSc1nc2ccccc2o1)N1c2ccccc2Sc2ccc(Cl)cc21, the Potency was inconclusive: 39.8 µM [inhibitor, single point].
COc1ccc(OC)c2c(=S)c3ccccc3[nH]c12 was tested, and the Potency was inconclusive: 12.6 µM [quencher, side channel, partial curve].
Cc1cc(S(=O)(=O)Nc2ccc3cn[nH]c3c2)c(C)cc1Cl was tested, and the Potency was inconclusive: 3.16 µM [quencher, single point].
In the case of CCc1ccc(NS(=O)(=O)c2ccc3[nH]cc(C(=O)NCC4CCCO4)c(=O)c3c2)cc1 (configuration not stated), the Potency is reported as inconclusive: 35.5 µM [quencher, side channel, single point].
In the case of C=CC#CC[N+]1(CC#Cc2ccccc2)CCOCC1, the Potency is reported as active: 25.1 µM.
In the case of O=C(COC(=O)C1COc2ccccc2O1)Nc1cccc(S(=O)(=O)N2CCCCC2)c1 (configuration not stated), the Potency is reported as inconclusive: 20 µM [quencher, side channel, partial curve].
O=C(Nc1ccccc1O)c1c(O)c2c([nH]c1=O)CCCC2 was tested, and the Potency was inconclusive: 11.2 µM [quencher, side channel, partial curve].
With CCCC1C(=O)N(c2ccccc2)C1c1ccccc1 (configuration not stated) the Potency was inconclusive: 39.8 µM [fluorescent, side channel, partial curve, poor fit].
In the case of CCN(CC)c1ccc2oc(=O)c(C)nc2c1, the Potency is reported as inconclusive: 35.5 µM [inhibitor, single point].
O=C(Nc1ccc(F)cc1F)N1CCC(c2nc3ccccc3o2)CC1 was tested, and the Potency was inconclusive: 5.62 µM [inhibitor, full curve, poor fit].
With Cc1nc2ccccc2c2oc(C(=O)NCc3ccccn3)cc12 the Potency was inconclusive: 39.8 µM [inhibitor, single point].
For Cc1ccc(OCC(=O)N2CCCCCC2)c(C)c1, the Potency was inconclusive: 15.8 µM [inhibitor, partial curve, poor fit].
COc1c(-c2ccc([N+](=O)[O-])cc2[N+](=O)[O-])c(=O)n(C)c(=O)n1C was tested, and the Potency was inconclusive: 10 µM [inhibitor, full curve].
With CC(=O)c1cc(C)ccc1OC(=O)CCN1C(=O)C2C3c4ccccc4C(c4ccccc43)C2C1=O (configuration not stated) the Potency was inconclusive: 5.62 µM [inhibitor, full curve, poor fit].
CN(c1ccc(O)cc1)c1nc(-c2cccs2)cs1 was tested, and the Potency was inconclusive: 14.1 µM [fluorescent, side channel, partial curve].
With O=[N+]([O-])c1ccc(-c2nc(-c3ccc(F)cc3)c(-c3ccncc3)[nH]2)cc1 the Potency was inconclusive: 12.6 µM [quencher, side channel, partial curve].
With Cc1ccc(Cn2ccc(NC(=O)c3cc(-c4ccccc4)on3)n2)cc1 the Potency was inconclusive: 28.2 µM [quencher, side channel, single point].
With Clc1ccccc1CONc1ncnc2nonc12 the Potency was inconclusive: 39.8 µM [quencher, side channel, single point].
CCOC(=O)N(CC)OC(=O)Nc1ccc(Cl)cc1 was tested, and the Potency was “inactive”.
In the case of CC(C)Cc1ccc(S(=O)(=O)N2CCN(c3ccccn3)CC2)cc1, the Potency is reported as inconclusive: 17.8 µM [fluorescent, side channel, partial curve].
In the case of Cc1[nH]n(-c2ccccc2)c(=O)c1C=Nc1cccc2cccnc12, the Potency is reported as inconclusive: 20 µM [quencher, side channel, partial curve].
With O=C(NCCc1c[nH]c2ccccc12)C(=O)Nc1ccccc1 the Potency was inconclusive: 22.4 µM [quencher, side channel, partial curve].
O=S(=O)(NCc1ccccc1)c1ccc(S(=O)(=O)N(Cc2ccccn2)Cc2ccco2)cc1 was tested, and the Potency was inconclusive: 3.16 µM [fluorescent, side channel, partial curve].
For Fc1cccc(NC(=S)NNc2c3ccccc3nc3ccccc23)c1, the Potency was inconclusive: 2.82 µM [quencher, side channel, full curve].
O=C(CN(c1ccc(Br)cc1)S(=O)(=O)c1ccc(Cl)c([N+](=O)[O-])c1)NCCc1ccccc1 was tested, and the Potency was “inactive”.
For Fc1ccc2nc(Nc3nc4c(F)cc(F)cc4s3)sc2c1, the Potency was inconclusive: 14.1 µM [quencher, side channel, partial curve].
c1ccc(Sc2nc(N3CCCCC3)nc(N3CCCCC3)n2)nc1 was tested, and the Potency was inconclusive: 22.4 µM [inhibitor, partial curve].
In the case of CCOc1ccc(CNC(=O)CS(=O)(=O)Cc2nc(-c3ccc(OC)cc3)oc2C)cc1, the Potency is reported as inconclusive: 20 µM [fluorescent, side channel, partial curve].
In the case of COc1ccc(-c2[nH]ncc2/C=N/NC(=O)c2cc(Br)ccc2O)c(OC)c1, the Potency is reported as inconclusive: 3.55 µM [quencher, side channel, full curve].
With COc1ccc(-c2ocnc2C(=O)N2CCN(C(c3ccccc3)c3ccccc3)CC2)cc1 the Potency was inconclusive: 3.55 µM [inhibitor, full curve, poor fit].
Cc1ccc(CNC(=O)C2(CC(C)C)C=CCN2C(=O)c2ccccc2)o1 (configuration not stated) was tested, and the Potency was “inactive”.
In the case of COc1ccc(CC(=O)NCc2nnc(SCCOc3ccccc3)n2C)cc1, the Potency is reported as inconclusive: 14.1 µM [inhibitor, partial curve].
Cc1ccc(C(C(=O)NCc2ccco2)N(C(=O)Cn2nnc3ccccc32)c2ccccc2)o1 (configuration not stated) was tested, and the Potency was inconclusive: 28.2 µM [fluorescent, side channel, partial curve].
With O=C(N/N=C/c1ccc(-c2cccc([N+](=O)[O-])c2)o1)c1ccc([N+](=O)[O-])cc1 the Potency was inconclusive: 8.91 µM [quencher, side channel, partial curve].
With COc1cccc(C(=O)COc2cccc(NC(=O)c3ccco3)c2)c1 the Potency was inconclusive: 31.6 µM [quencher, side channel, single point].
For COc1cccc(Cn2c(=S)[nH]c3ccc(N4CCOCC4)cc3c2=O)c1, the Potency was inconclusive: 15.8 µM [quencher, side channel, partial curve].
In the case of Cc1ccc(-c2nn(-c3ccccc3)cc2/C=C/C(=O)Nc2cccc(S(N)(=O)=O)c2)cc1, the Potency is reported as inconclusive: 3.16 µM [quencher, side channel, partial curve].
In the case of Cc1cc(C)cc(NC(=O)CSc2nc3[nH]c(=O)cc(O)c3s2)c1, the Potency is reported as inconclusive: 25.1 µM [quencher, partial curve].
COCCNc1nnc(SCC(=O)Nc2sc3c(c2C(=O)c2ccccc2)CCCC3)s1 was tested, and the Potency was inconclusive: 0.631 µM [inhibitor, partial curve, poor fit].
With O=C(O)c1ccc(Nc2nc(-c3cccnc3)cs2)cc1O the Potency was inconclusive: 17.8 µM [quencher, side channel, partial curve].
Cc1nn(CCCC(=O)Nc2ccc(Br)cc2F)c(C)c1[N+](=O)[O-] was tested, and the Potency was inconclusive: 25.1 µM [quencher, side channel, single point].
In the case of O=c1[nH]c2ccsc2c(=O)n1-c1ccc(F)c(Cl)c1, the Potency is reported as “inactive”.
In the case of CCOC(=O)c1cccc(N/C=C/C(=O)c2ccc(OC)c(OC)c2)c1, the Potency is reported as inconclusive: 12.6 µM [inhibitor, single point].
With Cc1ccc(CC(=O)Nc2ccc(S(=O)(=O)Nc3ncccn3)cc2)cc1 the Potency was inconclusive: 0.631 µM [quencher, side channel, full curve, poor fit].
With O=C(N/N=C/c1c[nH]c2ccccc12)c1ccccc1O the Potency was inconclusive: 20 µM [quencher, side channel, partial curve].
In the case of N#CC1=C(SCC(=O)c2ccc(Cl)cc2)NC2=C(C(=O)CCC2)C1c1ccco1 (configuration not stated), the Potency is reported as inconclusive: 35.5 µM [quencher, side channel, single point].
In the case of CC(C)Sc1nc2ccccc2n1CC(=O)O, the Potency is reported as inconclusive: 8.91 µM [inhibitor, single point].
O=C(CCCN1C(=O)/C(=C\c2cccs2)SC1=S)Nc1ccc(C(=O)O)cc1 was tested, and the Potency was inconclusive: 39.8 µM [quencher, side channel, single point].
In the case of Nc1c(C(=O)Nn2cnnc2)cc([N+](=O)[O-])cc1[N+](=O)[O-], the Potency is reported as “inactive”.
With COc1cc(/C=C/C(=O)c2ccc(NS(=O)(=O)c3ccc(C)cc3)cc2)ccc1OC(F)F the Potency was inconclusive: 10 µM [inhibitor, partial curve].
COc1ccccc1/C=c1\sc2nc(-c3ccco3)nn2c1=O was tested, and the Potency was inconclusive: 14.1 µM [quencher, side channel, partial curve].
